Hit rate of the full screen: of about 71,000 compounds, about 1,800 (2.5%) were called active. The shares of active, inactive and inconclusive entries below differ from those in the screen. The call rests on the fitted dose curve; in most records, active means well fitted activation curve with a large enough effect in the signal ratio, with a control signal flat (not every such curve was filed as active); inconclusive means small, poorly fitted or top-dose-only effect, or effect the other way, or a change in a side signal; inactive means flat fitted curve, though single readings scatter; the % refers to the signal ratio. Where the call is inconclusive, the potency comes from a doubtful curve fit.
Assay: Cell signaling CRE-BLA (Fsk stim); on activity change, negative = inhibition: % of control where 0% means no effect
Conditions: CHO CRE-bla reporter (cAMP response element driving beta-lactamase), forskolin EC10, beta-lactamase ratio; activity change, negative = inhibition: at 38.2 µM (top of the series) unless noted
Method in brief: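 CRE-bla CHO reporter cells treated with compound titration plus EC10 NKH 477 (water-soluble forskolin), incubated 3 h at 37 °C; CCF4 loading 2 h at room temperature, 460/530 nm emission ratio read, AC50 values derived for positive or negative modulators.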
Potency means the concentration at half of the fitted maximal effect; tags describe the fitted curve by direction and shape.

Structure (SMILES)	Potency	activity change, negative = inhibition
COCCn1c(=O)c(-c2ccc(Cl)cc2)nc2cncnc21	active: 10 µM	
Cn1c(=O)cnc2cnc(OCc3ccccc3)nc21		inactive: 8.62%
Cc1c(-c2nn(C)c(=O)c3ccccc23)oc2ccc(F)cc2c1=O	inconclusive: 3.16 µM [rising, full curve, poor fit]	
Cc1cc(NC(=O)CSc2nc(-c3ccccc3)cs2)no1		inconclusive: -15.2%
Oc1ccc(-c2nnc(-c3ccc(O)cc3)nn2)cc1		inconclusive: 8.12%
c1ccc2nc(N3CCCC3)c(N3CCCC3)nc2c1		inconclusive: 24.3%
Cc1cc(C)n(C(=O)c2cccc(S(=O)(=O)N3CCCC3)c2)n1		inactive: 0.853%
Cc1[nH]nc2c1C(c1ccccc1)C1=C(CC(C)(C)CC1=O)N2 (centres undefined)	inconclusive: 0.316 µM [rising, full curve]	
Oc1ccc2cc(SSc3ccc4cc(O)ccc4c3)ccc2c1		inconclusive: -28.9%
CCCCN1C(=O)CC(Nc2ccc(CC)cc2)C1=O (centres undefined)		inconclusive: -12%
COc1ccc(OCCCN2CCCC(C)C2)cc1 (centres undefined)		inconclusive: 5.11%
Cc1ccc2[nH]c3c(c2c1)CN(C(=O)CN1CCN(c2cccc(C)c2C)CC1)CC3		inconclusive: -23.6%
COC(=O)c1cc(Br)c(=O)n(CCN(C(C)C)C(C)C)c1		inconclusive: -6.19%
CCOc1ccc(OCC)c(NC(=O)CN(C)S(=O)(=O)c2cnc[nH]2)c1		inconclusive: 23.2%
CCOC(=O)C1CCCN(C(=O)c2cc(-c3ccccc3)on2)C1 (centres undefined)	inconclusive: 0.0251 µM [rising, full curve, poor fit]	
Clc1ccc(OCc2nc(-c3ccncc3)no2)c(Cl)c1		inactive: 25.5%
CN(C)c1ccc(-c2cncnc2Nc2ccc(F)cc2)cc1	inconclusive: 12.6 µM [falling, partial curve]	
O=C(NCCCn1ccnc1)c1ccc(Cl)c(S(=O)(=O)N2CCOCC2)c1		inactive: -2.09%
O=C(Nc1nc(-c2ccc(S(=O)(=O)N3CCCC3)cc2)cs1)c1ccco1	inconclusive: 15.8 µM [rising, single point]	
COc1cc(-c2cc(C(=O)N3CCN(c4ccccn4)CC3)c3ccccc3n2)cc(OC)c1OC		inactive: 24.5%
CN(C)c1oc(-c2ccc(OCc3ccccc3)cc2)nc1C#N	inconclusive: 7.94 µM [rising, partial curve]	
CCOC(=O)c1cc2c(=O)n3ccccc3nc2n(CCOC)c1=NC(=O)c1ccncc1	inconclusive: 12.6 µM [rising, partial curve]	
c1ccc2c(c1)ccc1nnc(-c3ccc4c(c3)OCO4)n12	inconclusive: 7.94 µM [rising, partial curve]	
CCOC(=O)C(NCc1ccccc1OC)(NC(C)=O)C(F)(F)F (centres undefined)		inactive: 7.22%
CCN(CC)CCOC(=O)c1ccc(NC(=O)COc2cc(=O)n(CC)c3ccccc23)cc1	inconclusive: 10 µM [rising, single point]	
N[C@@H](C(=O)O)c1ccc(C(=O)O)c(O)c1		inconclusive: -6.59%
COc1ccc(C2C(C(=O)NCc3ccccc3)=C(C)Nc3ncnn32)cc1OC (centres undefined)		inactive: 13.5%

Structure (SMILES)	Potency	activity change, negative = inhibition
COc1ccc(NC(=O)c2ccccc2NC(=O)C2CCCO2)cc1 (centres undefined)		inactive: 2.68%
Nc1cccc(O)c1		inactive: -6.52%
CN/C(=C\[N+](=O)[O-])NCCSCc1ccc(CN(C)C)o1		inconclusive: -11.3%
Cc1cccc(OCC(=O)Nc2ccccc2N2CCCCC2)c1		inconclusive: 26.4%
CC1=NC(Nc2nc(C)c3ccccc3n2)=NC(C)(C)C1	inconclusive: 12.6 µM [rising, single point]	
CCOC(=O)c1sc(=NC(=O)c2cc(OC)c(OC)c(OC)c2)n(C)c1C		inactive: -0.0525%
CN1CCN(c2nc3ccccc3nc2C(C#N)C(=O)OC2CCCCC2)CC1 (centres undefined)		inconclusive: 10.1%
O=C(Nc1ccc(CN2CCOCC2)cc1)c1ccc(-c2ccc(Br)cc2)o1		inactive: -11%
COC(=O)c1ccc(NC(=O)CCn2c(=O)oc3ccccc32)cc1		inactive: -10.6%
CC1=C(C(=O)OC(C)C)C(C)C(C(=O)OC(C)C)=C(C)N1		inactive: 2.98%
c1ccc2nc3c(nc2c1)c1ccccc1n3CCN1CCOCC1	active: 12.6 µM	
Cc1cc(C)c2c(n1)nn1c(NCCOCCO)cc(C)nc21	inconclusive: 25.1 µM [rising, single point]	
Cc1cc(C)c(C#N)c(SCS(=O)c2ccc(C(C)(C)C)cc2)n1 (centres undefined)	inconclusive: 10 µM [rising, single point]	
CO[C@H]1/C=C/O[C@@]2(C)Oc3c(C)c(O)c4c(O)c(c5c(c4c3C2=O)NC2(CCN(CC(C)C)CC2)N=5)=NC(=O)/C(C)=C\C=C\[C@H](C)[C@H](O)[C@@H](C)[C@@H](O)[C@@H](C)[C@H](OC(C)=O)[C@@H]1C		inactive: 3.5%
CCc1c(C)nc2ncnn2c1N1CCC(C(=O)NCc2ccc3c(c2)OCO3)CC1	inconclusive: 10 µM [rising, partial curve]	
COC(=O)Nc1nc2ccc(Sc3ccccc3)cc2[nH]1	active: 2.51 µM	
C[C@@H](NC(=O)C1(N)CCCC1)C(=O)O		inactive: -2.6% [at 7.6 µM]
CC1(C)CC(=O)C2=C(C1)OC(N)=C(C#N)C21C(=O)N2CCCc3cccc1c32 (centres undefined)		inactive: -9.9%
CCn1c(CNc2ccc(Cl)cc2)nnc1SCC(=O)NCc1ccccc1		inconclusive: -11.3%
Cc1cc(NCCN2CCOCC2)n2ncc(-c3ccccc3)c2n1		inconclusive: 20.3%
O=C(CSc1nnnn1-c1cccc2ccccc12)N1CCOCC1		inconclusive: -1.32%
COCCn1c(=O)[nH]c2cc(C(=O)NCCN3CCN(c4ccccc4F)CC3)ccc2c1=O		inactive: -0.545%
CCOC(=O)C(C)n1nc(C)c2sc3ccccc3c2c1=O (centres undefined)		inactive: 14.4%
CCCN1CCN(CCCNC(=O)CN2C(=O)COc3ccccc32)CC1		inconclusive: -20%
Cn1cnnc1SCC(=O)N(Cc1ccc2c(c1)OCO2)C1(C(=O)NC2CCCCC2)CCCC1		inactive: -2.84%
O=C(NC1CCCCC1)C1CCN(c2cnccn2)CC1		inactive: -2.63%
CCN(CC)S(=O)(=O)c1ccc2oc(C(=O)Nc3ccc(OC)cc3OC)c(C)c2c1		inconclusive: 27.4%
